Inconclusive means that the source gave no clear call. Such entries were picked first, then a sample of the others. A potency beside an inconclusive call is a rough fit, not a confirmed value. Active and inactive are the calls of the source. The call rests on the fitted dose curve; in most records, active means well fitted cell-killing curve with a large enough effect; inconclusive means small, poorly fitted or top-dose-only effect, or effect the other way; inactive means no such curve, though single readings can be large or run the other way.
test: Viability qHTS for spleen associated tyrosine kinase inhibitor (SYKi) naive MV4-11 cells (AID 1963823); conditions: MV4-11 AML viability, CellTiter-Glo luminescence, 72 h; series mostly up to 45 µM; further: nearly all actives have a fitted effect of over 40% in size
Method in brief: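 In this viability screen, compounds acted on SYK inhibitor naive MV4-11 cells for three days (72 hr, 37 C). Remaining viable cells were measured by CellTiter-Glo luminescence following a 10 min room-temperature development.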
Potency means the concentration at half of the fitted maximal effect; tags describe the fitted curve by direction and shape.

SMILES	Potency
C[C@@H]1O[C@@H](O[C@H]2[C@@H]3C=CO[C@@H](O[C@@H]4O[C@H](CO)[C@@H](O)[C@H](O)[C@H]4O)[C@@H]3[C@@]3(CO)O[C@@H]23)[C@H](O)[C@H](OC(=O)/C=C/c2ccccc2)[C@H]1O	inconclusive: 4.85 µM [cytotoxic, single point]
CC[C@H](C)[C@H](N)C(=O)O	inactive
COc1cc(OC)c(C(=O)/C=C/c2ccccc2)c2c1C=CC(C)(C)O2	active: 10.3 µM
CN[C@@H]1[C@H](O[C@H]2[C@H](O[C@@H]3[C@@H](O)[C@H](O)[C@@H](N=C(N)N)[C@H](O)[C@H]3N=C(N)N)O[C@@H](C)[C@]2(O)CO)O[C@@H](CO)[C@H](O)[C@H]1O	inconclusive: 0.0103 µM [rising, full curve]
O=C1CCCC2=C1C1(CCCC1)N=C(Nc1nc3ccccc3o1)N2	inconclusive: 10.3 µM [cytotoxic, partial curve, poor fit]
O=C(Nc1nccs1)C(c1cc(F)ccc1O)N1Cc2ccccc2C1=O (centres undefined)	inconclusive: 3.72 µM [cytotoxic, partial curve, poor fit]
CC(C)(C(=O)NCC(F)(F)C(F)(F)F)C(=O)NC1C(=O)Nc2ccccc2-c2ccccc21 (centres undefined)	active: 14.6 µM
C=C[C@H]1[C@H](O[C@@H]2O[C@H](CO)[C@@H](O)[C@H](O)[C@H]2O)OC=C(C(=O)OC)[C@H]1CC=O	inactive
C=C(C)C(=O)O[C@H]1C[C@@](C)(OC(C)=O)[C@@]2(O)CC[C@@](C)(O)[C@H](OC(C)=O)[C@@]23OC(=O)C(COC)=C13	active: 8.93 µM

From PubChem BioAssay (NCATS)
